# IC50 is the fitted dose that halves viability relative to control wells, and lower means more sensitive; a limit (>, <) means that the fit lies beyond the doses tested. AUC sums up the same curve from the lowest dose to the 256-fold higher top dose; the more sensitive the line, the further below 1. For some of these results: An inferred top dose was derived from the fitted curves, not read from the paper.
# How the values were obtained:
# XMD15-27 = compound: C=CC(=O)Nc1ccc(C(=O)c2sc(Nc3ccc(N4CCN(C)CC4)cc3OC)nc2N)cc1 [XMD15-27]; test: Viability of human cancer cell lines after 72 h of drug (GDSC screen); conditions: top dose 10.24 µM; top dose inferred
# Protocol: (§1)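 Human cancer cell lines in 384-well plates, medium with 10% serum, drug for 72 h over a 256-fold dose range (nine 2-fold or five 4-fold steps up to the top dose). Adherent lines were fixed and stained with the nucleic acid dye Syto60, suspension lines read with resazurin; signal relative to control wells, capped at 0 and 100%. One two-parameter sigmoid per drug and line, fitted in a mixed model over all curves with the slope shared within a line.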
# Temsirolimus = compound: CO[C@H]1C[C@@H]2CC[C@@H](C)[C@@](O)(O2)C(=O)C(=O)N2CCCC[C@H]2C(=O)O[C@H]([C@H](C)C[C@@H]2CC[C@@H](OC(=O)C(C)(CO)CO)[C@H](OC)C2)CC(=O)[C@H](C)/C=C(\C)[C@@H](O)[C@@H](OC)C(=O)[C@H](C)C[C@H](C)/C=C/C=C/C=C/1C [Temsirolimus]; test: as above; conditions: top dose 0.2 µM
# Protocol: as §1
Cell Line,AUC (XMD15-27),IC50 (XMD15-27) [nM],AUC (Temsirolimus),IC50 (Temsirolimus) [nM]
"NCI-H1734 (lung adenocarcinoma, adherent)",0.985,> 10200,0.932,> 200
"A2058 (melanoma, adherent)",0.99,> 10200,0.685,38.6
"NCI-H2122 (lung adenocarcinoma, adherent)",0.984,> 10200,0.972,> 200
"KASUMI-1 (acute myeloid leukaemia, suspension)",0.94,> 10200,0.845,145
"RL95-2 (endometrium, adherent)",0.987,> 10200,0.747,63.2
"KMS-12-BM (myeloma, suspension)",0.949,> 10200,0.733,49.8
"OMC-1 (cervix, adherent)",0.987,> 10200,0.858,176
"SiHa (cervix, adherent)",0.987,> 10200,0.839,167
"HT55 (large intestine, adherent)",0.99,> 10200,0.983,> 200
"NTERA-2 cl.D1 (testis, adherent)",0.985,> 10200,0.561,18.3
"H2722 (mesothelioma, adherent)",0.984,> 10200,0.855,> 200
"SISO (cervix, adherent)",0.977,> 10200,0.778,77.5
"RMG-I (ovary, adherent)",0.983,> 10200,0.909,> 200
"MDA-MB-175-VII (breast, adherent)",0.988,> 10200,0.85,175
"SR (lymphoid neoplasm, suspension)",0.708,2300,0.445,8.96
"G-MEL (melanoma, adherent)",0.981,> 10200,0.48,11.1
"HCC-366 (non-small cell lung carcinoma, adherent)",–,–,0.922,> 200
"VMRC-RCW (kidney, adherent)",0.989,> 10200,0.96,> 200

# — the supplement of paper PMC4967469
